Data from paper PMC10726135.
Some of the results follow. At the low end of the ranking the order means little. Measured with an extract: partners may take part in the binding.

target: T1, HNF4alpha2 (COS-7 nuclear extract) (UniProt P41235); experiment: protein-binding microarray; conditions: COS-7 nuclear extract on double-stranded Agilent 4x180k PBM; binding buffer, salt, pH and temperature not given; high values mean tight binding; double strand, one strand shown; sequences stand for … in …GCCTAGGGAGATTAGAGTATCGGTCGA
T1 sequence: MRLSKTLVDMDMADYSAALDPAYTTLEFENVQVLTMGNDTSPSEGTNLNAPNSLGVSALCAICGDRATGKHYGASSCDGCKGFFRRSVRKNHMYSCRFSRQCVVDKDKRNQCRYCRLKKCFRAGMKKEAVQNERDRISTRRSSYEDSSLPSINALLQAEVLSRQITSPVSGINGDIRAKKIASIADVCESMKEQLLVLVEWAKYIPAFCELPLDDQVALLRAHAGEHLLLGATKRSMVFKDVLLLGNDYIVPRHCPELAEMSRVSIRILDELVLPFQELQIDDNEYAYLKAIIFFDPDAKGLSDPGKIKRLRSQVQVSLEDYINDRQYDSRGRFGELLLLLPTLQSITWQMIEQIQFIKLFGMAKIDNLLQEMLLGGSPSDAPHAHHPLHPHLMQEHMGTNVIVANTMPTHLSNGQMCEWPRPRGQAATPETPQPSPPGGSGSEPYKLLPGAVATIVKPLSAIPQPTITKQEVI

Sequence | binding signal (log2 normalized intensity)
CCACAAGGGGGGAGCACCTCCCAACGTGCC | -1.22
GTTTAGTGAGCTGTCTAATTTTGCACAGCC | -1.22
GCAGAAGGTCAGGTGAATCAACGATAAGGG | -1.18
GATCCTCCCACTTCAGCCTCCCGAGTAGTT | 2.81
CTAGACCCACATCCTGTCAGACCAAGGCTG | -1.07
AAGTGGCTCACCCAAGTCACACAGTTAGAA | -0.782
CAAAGTGGAATTTGAACCTACACCTATGTG | 3.62
AAACTTCCACTAACTTGAGTGTGCACCCTG | 1.65
ACCAGAGGGAAGAGATCATGGCCGATCGAC | -1.19
TTGAAGCAGAGTGTCCCATATCACATTTTA | 0.955
CCACAGCCCAACTCGGAGGACTGAGCCCGC | -1.07
TATCTTCAAAGCCAGCAACGGTGAGTCAAG | 0.983
TGATCTACAGTCAGAGGCCTGAAGGCCCCC | 1.63
GAGAAAGGGGCTTAGGGAGGGTGAAGGTCA | 2.39
CCCCAGGCTGAGCGTGAACACCGGCCCCCT | 4.11
GACTGGAATGTCAAAGGGACAGCACTGGCA | -1.1
TTTGTCCTGGCACAACTGGATGGTGTTTGA | 1.32
CCTAGCTGACTGCGTCAGGCAGTTGGAATT | 0.515
TGGTGCTATCTTTGCTCACTGTAACCTTTG | 3.78
GTGAATGGATGGATCCGCAGCCAGGGCTGT | -1.22
TTAGTCTTATCTGAGGTGCCCTTACATTTT | 1.69
CCTTTGCCTCCACCTTCTCTCCCACTTATC | 1.77
ACTTCAAAGGGTGTTGTGACTACCTGGTTA | 0.524
CGACTACAACAGCCTTGCAGATAAGCCACG | -1.26

Sequence | binding signal (log2 normalized intensity)
CAGGACCATCTCGTCCCGTCAATCTGCAGC | -0.854
TGGATTCCTCCAGCCCTCCTCTCTGTAGTC | 1.04
TCTCCCACAAGGGCAGCCCTGTTTAGGAGG | -1.2
GAGGCCAGTCTTACTGCTTTCTATTCAGAC | -1.18
TGTTCTGTTTAACAGAGATTTGCAGCTCAA | -1.17
TAAATGACATAGTGACATTTACAGATAAAG | -0.989
ACAGAACAGATGGTGTTAAATCCTATCCTA | -1.12
GCCACCTGCTGGCTGAGCATCACCAGTGCA | -1.15
TCCTGAGTGATTGTAGTGTCATTGTTATTT | 2.06
CTCCCTCCCTCCCCCATTAGAGGCACACTC | 4.34
AAGGAAATATCTTCCCATAAAACCTAGACA | -0.978
TGTTCACAAGGAATTGGAATTGGGAGGACA | 0.916
GGTGAGTGGGGAAAGAGCCCCTTTGTCCAT | 0.56
TCGGTCACCCACACAAAAATGTGCCTTCCC | -1.09
CATGGGAGATAGAGCAGTGGAAGACAAATG | -1.08
GAAGGCCTGTTAAAAACACGAGCTATTGCG | -1.13
TGAGGTGGCTGCAGAGTGGGAGGCCAAGAG | -1.22
ATAAAACTGGAATAAAGCAGTCCCTACTTC | -1.18
CCGGGGCGCCCTTTGTTCTCCGGGTTCTGC | 2.02
TGTAGGTAAGCACAAAGTACAGCTTTTTGT | 1.13
TGAATTAGTACCTCAATGCTATCTCCCAGT | 0.447
TTGTCAGATGAGGAAATTGAGGCTTAGCAG | -0.906
CGCGAGAGCCGAAGTCTCTCGCCGAGGCCC | -1.15
GATATTTAACCTTTGATCTGTAAGCTCTCT | 4.61

Sequence | binding signal (log2 normalized intensity)
AGAAAGTAGAACGGTGGTTGTCAGAGACTG | -0.734
TTAACACAGGACAAATCAAGTGAAATGCCA | -1.04
AGTGATAAGCAGAGGATGGGAATTAGGGAG | -1.06
TCATAACACTTGTATGACCTTTGTTTTATT | 4.3
CGGGCCCCAAGTGGCCATCTTCACGCAATA | -1.22
CTCGGGGATGGCATGTCTCTGGTCGGGGAG | -1.1
AAAACCCATGGACCTGACACCCGCTGGCGC | -1.13
TAAGGTTCAAAGGGAAAAAATAATCAGCTT | -0.458
AAAGGCCACCACAAACCCTTCATCCAGCTG | -1.22
AAGCTATTCACTTTTTGGCCTTTGGCTGTT | 2.7
GATGATCATGGCTCACTGCACCTTGACCTC | 7.34
CTATTCAGGTATTTGCTCTGTGATAGCCTT | 1.51
GGTGGACTTTCCCCCCTCACACTTTGGCTA | 3.71
CGATGTATACAGTATCTATAGTTATTGCAT | 0.979
CTGGTCTTTGTCCTGGGAGAACAAACCTTA | 1.28
ACTTTGGCGTGCTGTGTACTTTGAACTGAA | 6.08
TCCAACCTTTGCTCACTTGGGGGTGGGGTG | 1.99
ACAACCAGGGAGATGTGAGCGACCTTTGCA | 3.89
AAATCCCGAGCCAGAGCCAAAGGGCATATT | 1.43
CCCATCAGCTGGGCTTGTTCAAATAACAGC | -1.11
ACCTTTGTCCTCATTGAGCCCTCCCCTTGT | 4.33
CTATGCACACGTTCAGTTAGAGGGCTCAAT | -0.854
ACAGGTGGACAAACAGGCTGAACATGACTG | -1.13
GCAACAGAAAACTCAACTTCTAACTTCCGG | -1.26
